Experimental findings from patent US8992915B2, “Combination of CD37 antibodies with ICE” (Boehringer Ingelheim International GmbH, priority 2012, dated 2015) are described below.

The experiment has as its system human Burkitt lymphoma Ramos xenografts. Nature of the experiment: Anti-tumor effect in subcutaneous Ramos xenograft tumor model in mice. The experiment is classed as in vivo. To be noted: Ramos tumor-bearing mice. On the procedure:
Mice are 11 week-old female Crl:SHO-PrkdcscidHrhr purchased from Charles River. After arrival, mice are allowed to adjust to ambient conditions for at least 5 days before they are used for the experiments. They are housed in Makrolon type III cages in groups of 7 (8 for the controls) under standardized conditions at 21.5+/−1.5° C. temperature and 55+/−10% humidity. Standardized diet (PROVIMI KLIBA) and autoclaved tap water were provided ad libitum. Subcutaneously implanted (under isoflurane anesthesia) microchips are used to identify each mouse. […]
Tumor diameters are measured three times a week (Monday, Wednesday and Friday) with a caliper. The volume of each tumor [in mm^3] is calculated according to the formula “tumor volume=length*diameter^2*π/6.” To monitor side effects of treatment, mice are inspected daily for abnormalities and body weight is determined three times a week (Monday, Wednesday and Friday) Animals are sacrificed when the control tumors reached a size of approximately 1000 mm^3 on average. […]
TGI (tumor growth inhibition) values are calculated as follows: TGI=100×{1−[(treatedfinal day−treated/(controlfinal day−controlday 1)]}
The statistical evaluation is performed for the parameters tumor volume and body weight at day 15. […] For descriptive considerations the number of observations, the median, the minimum and the maximum are calculated. […]

B1: A2: chimeric CD37 antibody comprising heavy chain SEQ ID NO: 5 and light chain SEQ ID NO: 6 (antibody)
heavy: AVQLQQSGPELEKPGASVKISCKASGYSFTGYNMNWVKQNNGKSLEWIGNIDPYYGGTTYNRKFKGKATLTVDKSSSTAYMQLKSLTSEDSAVYYCARSVGPMDYWGQGTSVTVSSASTKGPSVFPLAPSSKSTSGGTAALGCLVKDYFPEPVTVSWNSGALTSGVHTFPAVLQSSGLYSLSSVVTVPSSSLGTQTYICNVNHKPSNTKVDKRV[human IgG1 Fc with changes not shown]
light: DIQMTQSPASLSASVGETVTITCRTSENVYSYLAWYQQKQGKSPQLLVSFAKTLAEGVPSRFSGSGSGTQFSLKISSLQPEDSGSYFCQHHSDNPWTFGGGTELEIKRTVAAPSVFIFPPSDEQLKSGTASVVCLLNNFYPREAKVQWKVDNALQSGNSQESVTEQDSKDSTYSLSSTLTLSKADYEKHKVYACEVTHQGLSSPVTKSFNRGEC
On to B1, for which the “median TGI (tumor growth inhibition)” value (day 15, two cycles, A2 1 mg/kg twice weekly i.v., ICE (ifosfamide 83.3, carboplatin 7.8, etoposide 0.5 mg/kg) three times weekly i.p.) stood at 70%. Also, the “time until the group median tumor volume exceeded 500 mm^3” value (third cycle after day 15, day 24 last day of study, same dosing as TGI) stood at 16 days.
